Results reported in PubChem BioAssay AID588342 (National Center for Advancing Translational Sciences (NCATS), 2011).
The campaign covered roughly 360,000 compounds. About 25,000 (6.9%) were called active. The inconclusive results got no clear call from the source; some entries with a clear call stand among them for comparison. Calls come from the whole dose curve; as a rule, active = well fitted inhibition curve with a large enough effect; inconclusive = small, poorly fitted or top-dose-only effect; inactive = flat fitted curve, though single readings scatter. Potencies beside an inconclusive call are fits to weak or partial responses and may not hold up.

Target: Luciferin 4-monooxygenase (Photinus pyralis) (UniProt P08659)
Sequence of UniProt P08659 (P08659 whole entry, looked up): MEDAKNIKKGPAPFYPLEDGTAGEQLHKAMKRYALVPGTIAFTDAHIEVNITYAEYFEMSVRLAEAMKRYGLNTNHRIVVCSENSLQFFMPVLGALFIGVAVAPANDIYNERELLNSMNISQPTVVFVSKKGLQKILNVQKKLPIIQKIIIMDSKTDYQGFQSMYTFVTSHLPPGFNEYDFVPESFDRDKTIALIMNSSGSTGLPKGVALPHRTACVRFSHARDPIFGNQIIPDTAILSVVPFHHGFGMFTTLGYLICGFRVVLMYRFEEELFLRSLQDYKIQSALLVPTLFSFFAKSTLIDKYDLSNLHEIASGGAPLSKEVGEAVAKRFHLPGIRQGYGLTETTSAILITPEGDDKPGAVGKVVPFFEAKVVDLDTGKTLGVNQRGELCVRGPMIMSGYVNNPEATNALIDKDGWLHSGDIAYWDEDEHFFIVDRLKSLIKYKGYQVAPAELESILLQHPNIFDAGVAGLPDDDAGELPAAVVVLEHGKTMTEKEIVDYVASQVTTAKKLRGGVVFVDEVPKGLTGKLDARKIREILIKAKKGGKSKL
Assay: qHTS profiling assay for firefly luciferase inhibitor/activator using purifed enzyme and Km concentrations of substrates (counterscreen for miR-21 project); note: nearly all actives have a fitted effect of over 55% in size
Details: purified FLuc, luminescence inhibition; series mostly up to 57.5 µM
Procedure, shortened: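 Purified P. pyralis luciferase, 10 nM final, with Km-level 10 uM D-luciferin and 10 uM ATP in 50 mM Tris acetate pH 7.5, 10 mM Mg acetate, 0.01% Tween-20, 0.05% BSA; 6-point qHTS titration about 60 µM downward; luminescence read.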
Potency is the fitted concentration of half-maximal effect; tags give direction and shape of the fitted curve.

Structure (SMILES)	Potency
CCc1ccc(/C=C2\CN(CC)Cc3c2nc2ccccc2c3C(=O)O)cc1	inconclusive: 33.8 µM [inhibitor, partial curve, poor fit]
CC(C)c1ccc(NC(=O)Cc2cn(C)c3ccccc23)cc1	inconclusive: 37.9 µM [inhibitor, partial curve, poor fit]
c1ccc(-c2ccc(OCCCn3cncn3)cc2)cc1	active: 16.9 µM
Cn1ncc(Cl)c1C(=O)N1CCC(Cc2ccccc2)CC1	inactive
COc1ccc(-n2nc(C(=O)NCC(=O)NCCCN3CCCCCC3)c3ccccc3c2=O)cc1Cl	inactive
O=C(OCc1cc(=O)n2nc(C3CC3)sc2n1)c1ccc(NC(=O)c2ccccc2F)cc1	inactive
CCOC(=O)c1cc(-c2cc(OC)c(OC)c(OC)c2)nc2c1c(=O)[nH]c(=O)n2Cc1ccccc1	inactive
COc1ccc(/C=C2\SC(=S)N(N3C(=O)CCC3=O)C2=O)cc1O	inconclusive: 10.7 µM [inhibitor, partial curve]
N#Cc1ccccc1Cn1c(-c2cscn2)nc2ccccc21	inconclusive: 26.9 µM [inhibitor, partial curve, poor fit]
Cc1[nH]c2ccccc2c1/C=N\NC(=O)c1ccco1	inconclusive: 19 µM [inhibitor, partial curve, poor fit]
Cc1cc2cc(CNC(=O)Cc3cccs3)ccc2n1C	inconclusive: 26.9 µM [inhibitor, partial curve, poor fit]
COc1ccc(NC(=S)Nc2ccc(N)c([N+](=O)[O-])c2)cc1	inconclusive: 37.9 µM [inhibitor, partial curve, poor fit]
Cc1cccc(CNC(=O)CN2C(=O)CSc3c2c(C)nn3-c2ccccc2)c1	inactive
C/C(=N\NC(=O)c1sccc1C)c1cccnc1	active: 13.5 µM
O=C(N/N=C/c1ccccc1[N+](=O)[O-])c1cnccn1	inconclusive: 23.9 µM [inhibitor, partial curve]
C/C(=N\NC(=O)c1cc(-c2ccc(Br)s2)[nH]n1)c1ccncc1	inconclusive: 33.8 µM [inhibitor, partial curve, poor fit]
CCOc1ccc(NC(=O)Cc2c[nH]c3ccccc23)cc1	inconclusive: 37.9 µM [inhibitor, partial curve, poor fit]
O=C(Nc1cccc(-c2ccc(F)cc2)c1)C1CCCN(C(=O)c2cscn2)C1 (stereo unspecified)	inconclusive: 37.9 µM [inhibitor, partial curve, poor fit]
CC(/C=C/c1ccco1)=N/NC(=O)OC(C)(C)C	inconclusive: 21.3 µM [inhibitor, single point]
O=C(O)c1ccc(NC(=O)c2ccc(Br)c(S(=O)(=O)N3CCCC3)c2)cc1	inconclusive: 15.1 µM [inhibitor, partial curve, poor fit]
CC(=O)c1ccc(OCc2cc(=O)n3ccsc3n2)cc1	inconclusive: 37.9 µM [inhibitor, partial curve, poor fit]
Cc1cc(C(=O)CSc2ccc(F)cc2)cc(C)c1OC(=S)N(C)C	active: 0.675 µM
COc1cc(CNC(C)C)c(Br)cc1OC1CCCC1	inactive
CCCC12CN3CC(C)(CN(C1)C3c1ccc(OCc3ccccc3)cc1)C2=O (stereo unspecified)	inactive

Structure (SMILES)	Potency
CCC(=O)N(CC)C1=C(O)c2ccccc2C(=O)C1=O	inconclusive: 10.7 µM [inhibitor, partial curve]
COc1ccccc1NC(=O)c1sc2nc3n(c(=O)c2c1C)N=C(c1cccc(Br)c1)CS3	inactive
CC(=O)c1cccc(NC(=O)NC2CCCCCCC2)c1	active: 16.9 µM
CN(C)c1ccc(-c2nn3c(-c4ccccc4Cl)nnc3s2)cc1	inconclusive: 21.3 µM [inhibitor, partial curve, poor fit]
Cc1ccc(NC(=O)NC(=O)N(C2CCCCC2)S(=O)(=O)c2ccccc2)cc1	inconclusive: 21.3 µM [inhibitor, single point]
Cc1ccc(-n2nc3c(N4CCC(C(=O)NCc5cccc(F)c5)CC4)nnc(C)c3c2C)cc1	inactive
CSc1ncccc1C(=O)Nc1ccc2c(c1)OCO2	inconclusive: 21.3 µM [inhibitor, single point]
Cc1ccc(/C=c2\sc3n(c2=O)CN(c2ccc(Br)cc2)CN=3)o1	inconclusive: 37.9 µM [inhibitor, partial curve, poor fit]
COc1cccc(CNC(=O)CCC2CCCN(C(=O)c3ccc(OC)o3)C2)c1 (stereo unspecified)	inconclusive: 19 µM [inhibitor, partial curve, poor fit]
O=C(/C=C/c1cccs1)N1CCCCC1	inconclusive: 23.9 µM [inhibitor, single point]
CCOc1ccc(C(=O)Nc2ccc3c(c2)OCCO3)cc1Br	active: 1.35 µM
CCC(C(=O)Nc1ccc(C(=O)Nc2ccccc2C(=O)O)cc1)c1ccccc1 (stereo unspecified)	inconclusive: 37.9 µM [inhibitor, partial curve, poor fit]
COc1ccccc1C(=O)NN=C1CCN(Cc2ccccc2)CC1	inconclusive: 21.3 µM [inhibitor, single point]
Cc1ccc(-c2csc3ncnc(Nc4ccc(C(=O)O)cc4)c23)cc1	inconclusive: 21.3 µM [inhibitor, partial curve]
COc1ccc(-c2cc(-c3ccccc3)nc3ncnn23)cc1	inactive
COc1ccc(CCNC(=S)NNC(=O)c2c(Br)c(C)nn2C)cc1OC	inactive
O=C(Cc1ccccc1)NNS(=O)(=O)c1ccccc1[N+](=O)[O-]	inactive
COc1cc(-c2ccc3c(=O)c4ccccc4n(C)c3c2)cc(OC)c1OC	inconclusive: 26.9 µM [inhibitor, partial curve, poor fit]
N/C(=N\OC(=O)c1cccc(Br)c1)c1ccc(Br)cc1	inconclusive: 12 µM [inhibitor, partial curve]
CCOc1c(Br)cc(/C=C2\C(=O)N(CCC#N)N=C2C)cc1OC	inactive
Cc1cccc(Nc2nc(-c3ccncc3)cs2)c1	active: 16.9 µM
CC(C)Oc1cccc(C(=O)NC(=S)Nc2cccc(NC(=O)c3ccccc3Cl)c2)c1	inconclusive: 12 µM [inhibitor, partial curve]
O=c1[nH]c(=S)[nH]c2c1C(c1ccc(Br)cc1)c1c([nH]c(=S)[nH]c1=O)O2	inconclusive: 37.9 µM [inhibitor, single point]
CCOC(=O)C(=Cc1cc(=O)c(OC)co1)C(=O)OCC	inconclusive: 30.1 µM [inhibitor, partial curve, poor fit]

Structure (SMILES)	Potency
CC(C)CC1=C/C(=C/c2ccc(-c3ccccc3)o2)C(=O)O1	inconclusive: 23.9 µM [inhibitor, single point]
CSc1ccccc1NC(=O)C(=O)c1c[nH]c2ccccc12	active: 15.1 µM
O=C(C1CCC(=O)N(C2CCCC2)C1)N1CCC(Oc2ccccc2Cl)CC1 (stereo unspecified)	inactive
COc1ccc(-c2noc(CSc3nc4ccccc4[nH]3)n2)cc1	inactive
CC(C)c1ccc(Nc2c(-c3ccc(N(C)C)cc3)nc3cnccn23)cc1	inconclusive: 10.7 µM [inhibitor, partial curve]
O=C(Nc1nccs1)c1ccc(N2CCOCC2)c([N+](=O)[O-])c1	active: 12 µM
CCCOc1ccc2[nH]c(C(=O)N/N=C/c3cc(OC)c(OC)c(OC)c3)cc2c1	active: 13.5 µM
CCCc1nnc(NC(=O)Nc2ccccc2OC)s1	inconclusive: 33.8 µM [inhibitor, single point]
Cc1cc(OCC(=O)Nc2ccncc2)ccc1Cl	inconclusive: 37.9 µM [inhibitor, partial curve, poor fit]
COc1ccccc1-c1nnc(SCC(=O)OC(C)C)o1	inconclusive: 23.9 µM [inhibitor, partial curve, poor fit]
COC(=O)CC1C(=O)NC2CCCCC2N1C(=O)CCl (stereo unspecified)	inactive
CCCCc1nn2c(=O)cc(COC(=O)c3ccccc3C)nc2s1	inconclusive: 30.1 µM [inhibitor, single point]
COc1ccc(N/C=C\C(=O)c2ccc3ccccc3c2)cc1	inconclusive: 0.478 µM [inhibitor, full curve]
COc1ccc(NC(=O)C(C(C)C)N2Cc3ccccc3C2=O)cc1 (stereo unspecified)	inactive
O=C(CSc1ccc(Cl)cc1)N1CCN(c2c(Cl)cccc2[N+](=O)[O-])CC1	inconclusive: 16.9 µM [inhibitor, partial curve]
CC(Cc1ccccc1)C(=O)N(C)Cc1ccccc1 (stereo unspecified)	inconclusive: 19 µM [inhibitor, partial curve, poor fit]
Cc1ccc2nc(Cl)c(/C=N/Nc3ccc(C(=O)O)cc3)cc2c1	active: 0.0675 µM
CCS(=O)(=O)c1ccc(O)c(NC(=O)COc2ccc(OC)cc2)c1	inconclusive: 37.9 µM [inhibitor, single point]
COc1ccc(C(=O)C(C)Oc2cccc(NC(=O)c3cccc([N+](=O)[O-])c3)c2)cc1 (stereo unspecified)	inactive
CC1CN(C(=O)CCC(=O)NCc2ccccc2Cl)c2ccccc2S1 (stereo unspecified)	inconclusive: 37.9 µM [inhibitor, partial curve, poor fit]
CC(C)C(=O)Nc1sc2c(c1-c1nc3ccccc3[nH]1)CCCC2	inconclusive: 30.1 µM [inhibitor, partial curve, poor fit]
Cc1ccc(SCCCCN2CCNCC2)cc1	inconclusive: 26.9 µM [inhibitor, partial curve, poor fit]
CCCNC(=S)N1CCC(c2nc3cc(C)c(C)cc3[nH]2)CC1	inconclusive: 21.3 µM [inhibitor, single point]
